The record followed here is PMC9352726 (Nature Communications, 2022).

The labels stand for the following.
B1: Myc-tagged human guanylate-binding protein 6 (hGBP6) (protein, UniProt Q6ZN66 1-633)
chain: MESGPKMLAPVCLVENNNEQLLVNQQAIQILEKISQPVVVVAIVGLYRTGKSYLMNHLAGQNHGFPLGSTVQSETKGIWMWCVPHPSKPNHTLVLLDTEGLGDVEKGDPKNDSWIFALAVLLCSTFVYNSMSTINHQALEQLHYVTELTELIKAKSSPRPDGVEDSTEFVSFFPDFLWTVRDFTLELKLNGHPITEDEYLENALKLIQGNNPRVQTSNFPRECIRRFFPKRKCFVFDRPTNDKDLLANIEKVSEKQLDPKFQEQTNIFCSYIFTHARTKTLREGITVTGNRLGTLAVTYVEAINSGAVPCLENAVITLAQRENSAAVQRAADYYSQQMAQRVKLPTDTLQELLDMHAACEREAIAIFMEHSFKDENQEFQKKFMETTMNKKGDFLLQNEESSVQYCQAKLNELSKGLMESISAGSFSVPGGHKLYMETKERIEQDYWQVPRKGVKAKEVFQRFLESQMVIEESILQSDKALTDREKAVAVDRAKKEAAEKEQELLKQKLQEQQQQMEAQDKSRKENIAQLKEKLQMEREHLLREQIMMLEHTQKVQNDWLHEGFKKKYEEMNAEISQFKRMIDTTKNDDTPWIARTLDNLADELTAILSAPAKLIGHGVKGVSSLFKKHKLPF
B2: Myc-tagged human guanylate-binding protein 2 (hGBP2) (protein, UniProt P32456 1-591)
chain: MAPEINLPGPMSLIDNTKGQLVVNPEALKILSAITQPVVVVAIVGLYRTGKSYLMNKLAGKKNGFSLGSTVKSHTKGIWMWCVPHPKKPEHTLVLLDTEGLGDIEKGDNENDSWIFALAILLSSTFVYNSMGTINQQAMDQLHYVTELTDRIKANSSPGNNSVDDSADFVSFFPAFVWTLRDFTLELEVDGEPITADDYLELSLKLRKGTDKKSKSFNDPRLCIRKFFPKRKCFVFDWPAPKKYLAHLEQLKEEELNPDFIEQVAEFCSYILSHSNVKTLSGGIPVNGPRLESLVLTYVNAISSGDLPCMENAVLALAQIENSAAVEKAIAHYEQQMGQKVQLPTETLQELLDLHRDSEREAIEVFMKNSFKDVDQMFQRKLGAQLEARRDDFCKQNSKASSDCCMALLQDIFGPLEEDVKQGTFSKPGGYRLFTQKLQELKNKYYQVPRKGIQAKEVLKKYLESKEDVADALLQTDQSLSEKEKAIEVERIKAESAEAAKKMLEEIQKKNEEMMEQKEKSYQEHVKQLTEKMERDRAQLMAEQEKTLALKLQEQERLLKEGFENESKRLQKDIWDIQMRSKSLEPICNIL
B3: Myc-tagged human guanylate-binding protein 1 (hGBP1) (protein, UniProt P32455 1-592)
chain: MASEIHMTGPMCLIENTNGRLMANPEALKILSAITQPMVVVAIVGLYRTGKSYLMNKLAGKKKGFSLGSTVQSHTKGIWMWCVPHPKKPGHILVLLDTEGLGDVEKGDNQNDSWIFALAVLLSSTFVYNSIGTINQQAMDQLYYVTELTHRIRSKSSPDENENEVEDSADFVSFFPDFVWTLRDFSLDLEADGQPLTPDEYLTYSLKLKKGTSQKDETFNLPRLCIRKFFPKKKCFVFDRPVHRRKLAQLEKLQDEELDPEFVQQVADFCSYIFSNSKTKTLSGGIQVNGPRLESLVLTYVNAISSGDLPCMENAVLALAQIENSAAVQKAIAHYEQQMGQKVQLPTETLQELLDLHRDSEREAIEVFIRSSFKDVDHLFQKELAAQLEKKRDDFCKQNQEASSDRCSALLQVIFSPLEEEVKAGIYSKPGGYRLFVQKLQDLKKKYYEEPRKGIQAEEILQTYLKSKESMTDAILQTDQTLTEKEKEIEVERVKAESAQASAKMLQEMQRKNEQMMEQKERSYQEHLKQLTEKMENDRVQLLKEQERTLALKLQEQEQLLKEGFQKESRIMKNEIQDLQTKMRRRKACTIS
B4: Myc-tagged human guanylate-binding protein 5 (hGBP5) (protein, UniProt Q96PP8 1-586)
chain: MALEIHMSDPMCLIENFNEQLKVNQEALEILSAITQPVVVVAIVGLYRTGKSYLMNKLAGKNKGFSVASTVQSHTKGIWIWCVPHPNWPNHTLVLLDTEGLGDVEKADNKNDIQIFALALLLSSTFVYNTVNKIDQGAIDLLHNVTELTDLLKARNSPDLDRVEDPADSASFFPDLVWTLRDFCLGLEIDGQLVTPDEYLENSLRPKQGSDQRVQNFNLPRLCIQKFFPKKKCFIFDLPAHQKKLAQLETLPDDELEPEFVQQVTEFCSYIFSHSMTKTLPGGIMVNGSRLKNLVLTYVNAISSGDLPCIENAVLALAQRENSAAVQKAIAHYDQQMGQKVQLPMETLQELLDLHRTSEREAIEVFMKNSFKDVDQSFQKELETLLDAKQNDICKRNLEASSDYCSALLKDIFGPLEEAVKQGIYSKPGGHNLFIQKTEELKAKYYREPRKGIQAEEVLQKYLKSKESVSHAILQTDQALTETEKKKKEAQVKAEAEKAEAQRLAAIQRQNEQMMQERERLHQEQVRQMEIAKQNWLAEQQKMQEQQMQEQAAQLSTTFQAQNRSLLSELQHAQRTVNNDDPCVLL
B5: human guanylate-binding protein 4 (hGBP4) used in SPR (protein, UniProt Q96PP9 1-640)
chain: MGERTLHAAVPTPGYPESESIMMAPICLVENQEEQLTVNSKALEILDKISQPVVVVAIVGLYRTGKSYLMNRLAGKRNGFPLGSTVQSETKGIWMWCVPHLSKPNHTLVLLDTEGLGDVEKSNPKNDSWIFALAVLLSSSFVYNSVSTINHQALEQLHYVTELAELIRAKSCPRPDEAEDSSEFASFFPDFIWTVRDFTLELKLDGNPITEDEYLENALKLIPGKNPKIQNSNMPRECIRHFFRKRKCFVFDRPTNDKQYLNHMDEVPEENLERHFLMQSDNFCSYIFTHAKTKTLREGIIVTGKRLGTLVVTYVDAINSGAVPCLENAVTALAQLENPAAVQRAADHYSQQMAQQLRLPTDTLQELLDVHAACEREAIAVFMEHSFKDENHEFQKKLVDTIEKKKGDFVLQNEEASAKYCQAELKRLSEHLTESILRGIFSVPGGHNLYLEEKKQVEWDYKLVPRKGVKANEVLQNFLQSQVVVEESILQSDKALTAGEKAIAAERAMKEAAEKEQELLREKQKEQQQMMEAQERSFQEYMAQMEKKLEEERENLLREHERLLKHKLKVQEEMLKEEFQKKSEQLNKEINQLKEKIESTKNEQLRLLKILDMASNIMIVTLPGASKLLGVGTKYLGSRI
B6: purified recombinant human guanylate-binding protein 1 (hGBP1) (natural protein, UniProt P32455 1-592, looked up)
chain: B3 chain
notes: also called pSUMO-hGBP1

No constants are given. Whether binding was seen depends on the method and setting. For part of these data: In cells and extracts the contact can be indirect. Some entries that bind do so weakly or less than the wild type. For part of these data: Sequences can lack the tags named with a protein.

The target in one experiment is FLAG-tagged YP_3417 (Yersinia pestis). Description: co-IP; […] (25 mM Tris-HCl pH 7.6, 150 mM NaCl, 0.5% Triton X-100); […].
For B1, the binding entry is given as “binds”.

Turning to B2, the binding result is recorded as “binds”.

Turning to B3, the binding result is “binds”.

Turning to B4, the binding result is “binds”.

The target in another experiment is purified recombinant YP_3417, full length (Yersinia pestis). The experiment is described as follows: SPR; Biacore T200; […] (0–20 μM) […] (20 mM HEPES pH 7.4, 150 mM NaCl, 3.4 mM EDTA, 0.005% P20); 25 °C; both purified.
Regarding B5, the binding entry was “no binding”.

Consider B6, for which the binding result was “binds”.
